# Reference: the supplement of paper PMC8728848
# The list shows a part of the results.
# B1: CAA (Caragana arborescens) (protein)
# chain: VAVEFDTFDNPDWDPRTKHIGIDVNSIRSNKTTQWGFWNRQVADVDISYEASSKTLNVSLYYPGESYIVTDVVDLKDILPEWVRIGF
# How the values were obtained:
# Assay in all cases: glycan array binding signal (z-score within array); higher = stronger binding
# Settings in all cases: glycan notation: IUPAC condensed, linker removed
# [1] = target: Gal(b1-4)GlcNAc(b1-3)Gal(b1-4)GlcNAc(b1-3)[Gal(b1-4)GlcNAc(b1-3)Gal(b1-4)GlcNAc(b1-6)]GalNAc
# In short: (§1)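 Arrays were curated from the Consortium for Functional Glycomics database, 3228 in total, and kept only where the protein sequence was available. Binding is expressed as a within-array Z-score. This score was averaged across arrays of the same protein sequence at different concentrations or buffers and across linkers, and negative values can be read as non-binding.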
# [2] = target: Gal(b1-4)GlcNAc(b1-3)Gal(b1-4)GlcNAc(b1-6)[Gal(b1-3)]GalNAc
# In short: as §1
# [3] = target: Gal(b1-4)GlcNAc(b1-3)Gal(b1-4)[Fuc(a1-3)]GlcNAc(b1-3)Gal(b1-4)[Fuc(a1-3)]GlcNAc
# In short: as §1
# [4] = target: Gal(b1-4)GlcNAc(b1-3)GalNAc
# In short: as §1
# [5] = target: Gal(b1-4)GlcNAc(b1-3)[Fuc(a1-3)GlcNAc(b1-6)]Gal(b1-4)Glc
# In short: as §1
# [6] = target: Gal(b1-4)GlcNAc(b1-3)[Gal(b1-4)GlcNAc(b1-6)]Gal(b1-4)GlcNAc
# In short: as §1
# [7] = target: Gal(b1-4)GlcNAc(b1-3)[GlcNAc(b1-6)]Gal(b1-4)GlcNAc
# In short: as §1
# [8] = target: Gal(b1-4)GlcNAc(b1-6)Gal(b1-4)GlcNAc
# In short: as §1
# [9] = target: Gal(b1-4)GlcNAc(b1-6)GalNAc
# In short: as §1
# [10] = target: Gal(b1-4)GlcNAc(b1-6)[Gal(b1-3)]GalNAc
# In short: as §1
# [11] = target: Gal(b1-4)GlcNAc(b1-6)[Gal(b1-4)GlcNAc(b1-3)]GalNAc
# In short: as §1
# Gal(b1-4)GlcNAc6P = target: Gal(b1-4)GlcNAc6P
# In short: as §1
# Gal(b1-6)Gal = target: Gal(b1-6)Gal
# In short: as §1
# Gal3S(b1-3)GalNAc = target: Gal3S(b1-3)GalNAc
# In short: as §1
# Gal3S(b1-3)GlcNAc = target: Gal3S(b1-3)GlcNAc
# In short: as §1
# [12] = target: Gal3S(b1-3)[Fuc(a1-4)]GlcNAc
# In short: as §1
# Gal3S(b1-4)Glc = target: Gal3S(b1-4)Glc
# In short: as §1
# Gal3S(b1-4)Glc6S = target: Gal3S(b1-4)Glc6S
# In short: as §1
# Gal3S(b1-4)GlcNAc = target: Gal3S(b1-4)GlcNAc
# In short: as §1
# [13] = target: Gal3S(b1-4)[Fuc(a1-3)]Glc6S
# In short: as §1
# [14] = target: Gal3S(b1-4)[Fuc(a1-3)]GlcNAc
# In short: as §1
# [15] = target: Gal3S(b1-4)[Fuc(a1-3)]GlcNAc6S
# In short: as §1
# Gal3S4S(b1-4)GlcNAc = target: Gal3S4S(b1-4)GlcNAc
# In short: as §1
# Gal3S6S(b1-4)GlcNAc = target: Gal3S6S(b1-4)GlcNAc
# In short: as §1
# Gal3S6S(b1-4)GlcNAc6S = target: Gal3S6S(b1-4)GlcNAc6S
# In short: as §1
# Gal4S(b1-4)GlcNAc = target: Gal4S(b1-4)GlcNAc
# In short: as §1
# Gal4S6S(b1-4)GlcNAc = target: Gal4S6S(b1-4)GlcNAc
# In short: as §1
# Gal6P(b1-4)GlcNAc = target: Gal6P(b1-4)GlcNAc
# In short: as §1
# Gal6S(b1-3)GlcNAc = target: Gal6S(b1-3)GlcNAc
# In short: as §1
# Gal6S(b1-3)GlcNAc6S = target: Gal6S(b1-3)GlcNAc6S
# In short: as §1
# Gal6S(b1-4)Glc = target: Gal6S(b1-4)Glc
# In short: as §1
# Gal6S(b1-4)Glc6S = target: Gal6S(b1-4)Glc6S
# In short: as §1
# Gal6S(b1-4)GlcNAc = target: Gal6S(b1-4)GlcNAc
# In short: as §1
# Gal6S(b1-4)GlcNAc6S = target: Gal6S(b1-4)GlcNAc6S
# In short: as §1
# GalNAc(a1-3)Gal = target: GalNAc(a1-3)Gal
# In short: as §1
# GalNAc(a1-3)GalNAc = target: GalNAc(a1-3)GalNAc
# In short: as §1
# [16] = target: GalNAc(a1-3)GalNAc(b1-3)Gal(a1-4)Gal(b1-4)Glc
# In short: as §1
# [17] = target: GalNAc(a1-3)GalNAc(b1-3)Gal(a1-4)Gal(b1-4)GlcNAc
# In short: as §1
# GalNAc(b1-3)Gal = target: GalNAc(b1-3)Gal
# In short: as §1
# [18] = target: GalNAc(b1-3)Gal(a1-4)Gal(b1-4)GlcNAc
# In short: as §1
# [19] = target: GalNAc(b1-3)Gal(a1-4)Gal(b1-4)GlcNAc(b1-3)Gal(b1-4)Glc
# In short: as §1
# [20] = target: GalNAc(b1-3)Gal(a1-6)Gal(b1-4)Glc
# In short: as §1
# GalNAc(b1-3)GalNAc = target: GalNAc(b1-3)GalNAc
# In short: as §1
# GalNAc(b1-3)GlcNAc = target: GalNAc(b1-3)GlcNAc
# In short: as §1
# GalNAc(b1-4)Gal(b1-4)Glc = target: GalNAc(b1-4)Gal(b1-4)Glc
# In short: as §1
binder,measurement,setting,value
B1,glycan array binding signal (z-score),[1],-0.179
same,glycan array binding signal (z-score),[2],-0.194
same,glycan array binding signal (z-score),[3],-0.242
same,glycan array binding signal (z-score),[4],-0.246
same,glycan array binding signal (z-score),[5],-0.232
same,glycan array binding signal (z-score),[6],-0.233
same,glycan array binding signal (z-score),[7],-0.235
same,glycan array binding signal (z-score),[8],-0.235
same,glycan array binding signal (z-score),[9],-0.241
same,glycan array binding signal (z-score),[10],-0.232
same,glycan array binding signal (z-score),[11],-0.243
same,glycan array binding signal (z-score),Gal(b1-4)GlcNAc6P,-0.249
same,glycan array binding signal (z-score),Gal(b1-6)Gal,-0.242
same,glycan array binding signal (z-score),Gal3S(b1-3)GalNAc,-0.239
same,glycan array binding signal (z-score),Gal3S(b1-3)GlcNAc,-0.238
same,glycan array binding signal (z-score),[12],-0.244
same,glycan array binding signal (z-score),Gal3S(b1-4)Glc,-0.238
same,glycan array binding signal (z-score),Gal3S(b1-4)Glc6S,-0.24
same,glycan array binding signal (z-score),Gal3S(b1-4)GlcNAc,-0.226
same,glycan array binding signal (z-score),[13],-0.23
same,glycan array binding signal (z-score),[14],-0.228
same,glycan array binding signal (z-score),[15],-0.241
same,glycan array binding signal (z-score),Gal3S4S(b1-4)GlcNAc,-0.25
same,glycan array binding signal (z-score),Gal3S6S(b1-4)GlcNAc,-0.235
same,glycan array binding signal (z-score),Gal3S6S(b1-4)GlcNAc6S,-0.248
same,glycan array binding signal (z-score),Gal4S(b1-4)GlcNAc,-0.25
same,glycan array binding signal (z-score),Gal4S6S(b1-4)GlcNAc,-0.251
same,glycan array binding signal (z-score),Gal6P(b1-4)GlcNAc,-0.249
same,glycan array binding signal (z-score),Gal6S(b1-3)GlcNAc,-0.255
same,glycan array binding signal (z-score),Gal6S(b1-3)GlcNAc6S,-0.252
same,glycan array binding signal (z-score),Gal6S(b1-4)Glc,-0.233
same,glycan array binding signal (z-score),Gal6S(b1-4)Glc6S,-0.245
same,glycan array binding signal (z-score),Gal6S(b1-4)GlcNAc,-0.239
same,glycan array binding signal (z-score),Gal6S(b1-4)GlcNAc6S,-0.249
same,glycan array binding signal (z-score),GalNAc(a1-3)Gal,-0.233
same,glycan array binding signal (z-score),GalNAc(a1-3)GalNAc,-0.249
same,glycan array binding signal (z-score),[16],-0.251
same,glycan array binding signal (z-score),[17],-0.237
same,glycan array binding signal (z-score),GalNAc(b1-3)Gal,-0.231
same,glycan array binding signal (z-score),[18],-0.243
same,glycan array binding signal (z-score),[19],-0.23
same,glycan array binding signal (z-score),[20],-0.245
same,glycan array binding signal (z-score),GalNAc(b1-3)GalNAc,-0.24
same,glycan array binding signal (z-score),GalNAc(b1-3)GlcNAc,-0.246
same,glycan array binding signal (z-score),GalNAc(b1-4)Gal(b1-4)Glc,-0.246
